This is one part of the list.
test system: PfSIP2 AP2 domain 1 (GST-tagged); assay: gcPBM binding intensity (ln(normalized median fluorescence intensity)); higher = stronger DNA binding
In short: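 An Agilent 4 × 180k array of primer-extended double-stranded 36-bp intergenic genomic probes, with negative controls, was incubated for 1 h with GST-tagged P. falciparum DNA-binding domains expressed in E. coli. Alexa488 anti-GST antibody detected bound protein, scanned at 488 nm. Binding intensity is the highest Masliner-normalised natural-log median intensity across replicate spots of either probe orientation.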

Compared with ATATTTAAAAATATAGTGCAATTATTCTAATGTGTT, “TATATTTACATTGTAACACACATGAAATATATATAT [CACACA_site61]” is higher in “gcPBM binding intensity (ln)” value: 7.6 for the first, 8.17 for the second.

Going from “TTTTTTATTGTGATACGTATATTATTTTTTGATAAA [CACACA_negctrl_site1]” to “TGTTGTAAATATGTTTGTACATAAATATATTATTTA [XGTACX_site5442]”, the “gcPBM binding intensity (ln)” value rises from 6.99 to 7.11.

First: TTAATTAATAGACACACACACATATAAATATAGATT [CACACA_site7143]
Second: AAAAAAAAATAATATTGTACACACATAAATTCTTTG [XGTACX_site4315]
The “gcPBM binding intensity (ln)” value of the first is higher: 7.06 for the first, 6.98 for the second.

Going from “GTGTATTTTCTGCGCACACACATGCAAAAAGAAATA [CACACA_site1148]” to “GTTTTATTAAAAATGTGTACTTAATTATGAAAAAAA [XGTACX_site4689]”, the “gcPBM binding intensity (ln)” value falls from 8.26 to 7.11.

First: AAGAAAAAATATAATAATAATAAAATATATATAATA [TGCATGCA_negctrl_site475]
Second: TTTGTTTTTCATAGTGCACACATAACCAAAAATAGT [CACACA_site9030]
The “gcPBM binding intensity (ln)” value of the first is lower: 6.51 for the first, 10.5 for the second.

Compared with “TATTGTTTTGATTGATGTACATGTTTAAAATATATA [XGTACX_site8430]”, “TAATCTATTTATATGTGTACCTATTTAGAAATGACA [XGTACX_site5709]” is higher in “gcPBM binding intensity (ln)” value: 7.24 for the first, 7.26 for the second.

First: AAAGTAAATTTAAGCACACACAACGAACTTTTATAC [CACACA_site7008]
Second: GCGGGTTTATCTTTCGCACACCTTACATTTTAGAAT [CACACA_site2015]
The “gcPBM binding intensity (ln)” value of the first is higher: 7.42 for the first, 7.07 for the second.

Compared with “AGTTTTATGTAGTGTTGTACTTTATACAAATATATT [XGTACX_site614]”, “ATATCACATTCCACGGTACACACTAAAAGAAAAATC [CACACA_site3611]” is higher in “gcPBM binding intensity (ln)” value: 7.05 for the first, 7.35 for the second.

First: ATAAATCAAAGGCACACACACAAAAAAAAAAAAAAA [CACACA_site160]
Second: TGTTTTTTATATTACTGTACATGTTTTGGAATAATA [XGTACX_site4716]
The “gcPBM binding intensity (ln)” value of the first is lower: 7.06 for the first, 7.12 for the second.

Compared with “TATTCCTTCTACAATTAAATAATTATAATAAATATA [GTGCAC_negctrl_site26]”, “GTATCATTAAATTATTGTACATATATATATATATAT [XGTACX_site8809]” is higher in “gcPBM binding intensity (ln)” value: 7.32 for the first, 9.44 for the second.

First: TATTTTTGTATATATTTATTCTTATTTTACAGGAAA [TGCATGCA_negctrl_site472]
Second: AACAAAAATAGAAACACACATACATTGGTTTTCTTT [CACACA_site2534]
The “gcPBM binding intensity (ln)” value of the first is higher: 6.92 for the first, 6.89 for the second.

Compared with “ACATTTAAGTTTAGCTGTACATATTCATCATAATTA [XGTACX_site37]”, “AAAAAAAAAAAAAAAAAAAAAAAAAAATATATATAT [CACACA_negctrl_site271]” is higher in “gcPBM binding intensity (ln)” value: 7.27 for the first, 8.99 for the second.

First: TGCTACTTATAAATAGAACACACATAAGTGTATTTG [CACACA_site9253]
Second: AAGAAAAAAAAAAAAAAAAAAAAAAAAAAGGAAAAA [GTGCAC_negctrl_site174]
The “gcPBM binding intensity (ln)” value of the first is lower: 6.81 for the first, 6.86 for the second.

Going from “ATAAAGCCATACAATACACACATTTGACATGTCCGT [CACACA_site7523]” to “ATACTTCAATCTATTTGTACATATTTTTTAAAACCA [XGTACX_site2328]”, the “gcPBM binding intensity (ln)” value rises from 6.98 to 7.21.

First: GAAATTTTTAAATACAGTACACACATGGGTTTAAAT [XGTACX_site6124]
Second: AATAATAAAAAATATACACACATATATAAATAAATA [CACACA_site6164]
The “gcPBM binding intensity (ln)” value of the first is higher: 6.98 for the first, 6.84 for the second.

First: TAAGAAAAAAAATAATGTACATATGTATTTGAGAAA [XGTACX_site3569]
Second: TATATATATATATATTGTACTAATTGTGCAAATGAG [XGTACX_site682]
The “gcPBM binding intensity (ln)” value of the first is lower: 6.99 for the first, 9.7 for the second.

First: TATATTAATAGACACACACACATATTTATATTTATA [CACACA_site6859]
Second: TATATTTAGTAAAAAGGTACCATTCTTATTTATATT [CACACA_negctrl_site1165]
The “gcPBM binding intensity (ln)” value of the first is higher: 7.14 for the first, 6.8 for the second.

Going from “TACTGTGATAGCACCACACACGCAAAAGTGAGTATA [CACACA_site1109]” to “TTTCAGCCAAACGATAAACTACGACACTTGAACGAA [CACACA_negctrl_site1747]”, the “gcPBM binding intensity (ln)” value falls from 7.95 to 6.77.

Compared with “ATATATTTTTTTTCTTCACACACATGAATTATATAT [CACACA_site9053]”, “ATATATATATATATATGTACATATTATATATGAACG [XGTACX_site1585]” is higher in “gcPBM binding intensity (ln)” value: 7.45 for the first, 9.83 for the second.

First: AATAATAGAAAAAGGTGTACTTATAAACATATACAC [XGTACX_site6921]
Second: GTAATTATTATTAATAGTACACACTATGGCATTTCA [XGTACX_site5192]
The “gcPBM binding intensity (ln)” value of the first is higher: 6.95 for the first, 6.91 for the second.

Compared with “ATTTTTTTTTTTATGTGTACATATATTTTTTTAATT [XGTACX_site7921]”, “AAGAAAAAATAAACATGTACATAAATATATATATAT [XGTACX_site304]” is higher in “gcPBM binding intensity (ln)” value: 7.02 for the first, 9.59 for the second.

Going from “ATTTAATTTATAAAAACACACACAGGTAAAAAGGTG [CACACA_site8306]” to “TAAGGCCCTTTTCATCGTACAGTAAAATATAAATAA [XGTACX_site1278]”, the “gcPBM binding intensity (ln)” value falls from 7.83 to 6.94.

First: CATACTGTGATAGCACCACACACGCAAAAGAGGGTA [CACACA_site8285]
Second: CAAATACATGTGTAAAGTACATATTAATAAGTCTTT [XGTACX_site6342]
The “gcPBM binding intensity (ln)” value of the first is higher: 8.08 for the first, 6.91 for the second.

Going from “GAAAATTCTTAAGGCACACACATATATAATATATAC [CACACA_site569]” to “AATTTAACCCATTTTATAATTATTACCACTATATAT [TGCATGCA_negctrl_site452]”, the “gcPBM binding intensity (ln)” value rises from 6.95 to 7.1.

“TCATTATATACAATATGTACATATATGTAATAAACA [XGTACX_site4611]” and “AGAAAGAAAGAATACACACACACATATATATATATC [CACACA_site3744]” are the same in “gcPBM binding intensity (ln)” value: 7.18 for the first, 7.18 for the second.

Compared with “AAAGAATTCATTATTTGTACTTAAATAAATAAATAA [XGTACX_site5932]”, “AAAGGATATGCTTCATATATATATTGTTATATATGT [CACACA_negctrl_site1672]” is higher in “gcPBM binding intensity (ln)” value: 6.86 for the first, 6.88 for the second.

Going from “AGCACACGCAGACACACACACACACGCACACGCACA [CACACA_site6306]” to “ATAACACAAAAAGGGGGTACAATAAAAAAAAAAAAA [XGTACX_site1652]”, the “gcPBM binding intensity (ln)” value rises from 8.43 to 8.46.

First: AATACCTATAATACAACACACAAGTAATATAAACCT [CACACA_site7661]
Second: TATTTATATAGGTATACACACATACAAATATGTAAA [CACACA_site7705]
The “gcPBM binding intensity (ln)” value of the first is higher: 7.03 for the first, 6.89 for the second.

First: TAAAATTTTTTATTCACACAAATATAGTTATATATA [CACACA_site5348]
Second: AAATTAATATAAATATGTACATAAATAATAAAATAT [XGTACX_site6131]
The “gcPBM binding intensity (ln)” value of the first is lower: 6.86 for the first, 7.36 for the second.

Compared with ATTTTTCAAACTTTAGTGCAATGAAAGAAAGAAAAA, “GGAGGTTGTTATAAAAGTACAAAAAGTTGCAATTTT [XGTACX_site7351]” is lower in “gcPBM binding intensity (ln)” value: 7.75 for the first, 7.11 for the second.

Compared with “GTTTTCCTTCCCTTTCCCCCTCAAAAAAAGGGAACA [TGCATGCA_negctrl_site436]”, “AAGGAATAAAGAAGTTGTACATAATTTGTATCATCC [XGTACX_site3891]” is lower in “gcPBM binding intensity (ln)” value: 8.88 for the first, 7.16 for the second.

Compared with “AAAAAAAAAAAAACTTGTACATGTGATATTATCTAT [XGTACX_site6169]”, “ATTTAATACATACATTCACACACACTAATTGTATAT [CACACA_site9361]” is higher in “gcPBM binding intensity (ln)” value: 6.86 for the first, 7.01 for the second.

Going from “TTAAATGTTCTATATACATGCAATGATATGTTTCTG [TGCATGCA_site317]” to “TCAAAGTAGGCTTATATGCACACTTTGAAATATTAT [CACACA_site1920]”, the “gcPBM binding intensity (ln)” value rises from 6.78 to 7.31.

Compared with “TTTAAAATAAATATTACACACAAAATATTAAAAAGC [CACACA_site2129]”, “ATATATACATATGGGTGTACATATGCACATATATAT [XGTACX_site8437]” is higher in “gcPBM binding intensity (ln)” value: 7.35 for the first, 7.5 for the second.

Compared with “ACAAAAAAAAACGTGGTGCATTAATAATATTGTATA [GTGCAC_site9469]”, “TAGTTAATATGAAAAAGTACACGTTTCAGTGAAAGT [XGTACX_site7402]” is lower in “gcPBM binding intensity (ln)” value: 10.3 for the first, 6.97 for the second.

Compared with “TGCTCTAATTTATATACACACAAATATGTACACATA [CACACA_site7845]”, “TTTCATAAATAATAAAATAAAATATGAAGCAAAAGG [CACACA_negctrl_site1767]” is lower in “gcPBM binding intensity (ln)” value: 7.32 for the first, 7.29 for the second.

First: TAATTTTTTTAAGAGAGTACATGACTCAACAGTTTA [XGTACX_site3103]
Second: TTATATCCAACTTGAAAAAAGGTATATGTTTATATA [CACACA_negctrl_site1746]
The “gcPBM binding intensity (ln)” value of the first is higher: 6.69 for the first, 6.62 for the second.

Compared with “TTTTTTTTTTTTTGGAGTACATGTTTATAACATAAT [XGTACX_site1799]”, “GATAATACATAAATTTATAAGTGGAAGAATAAATAA [CACACA_negctrl_site698]” is higher in “gcPBM binding intensity (ln)” value: 7.02 for the first, 7.06 for the second.

Compared with “GAAATATTACAAAGTACATGCAACGAAAATTTCAGT [TGCATGCA_site608]”, “ACAAACAAATAAATATGTACGAATAAATAAAATTTT [XGTACX_site4664]” is lower in “gcPBM binding intensity (ln)” value: 6.96 for the first, 6.94 for the second.

Compared with “TTTTTTTTCAAAAATACAAAAAAAAAAGAAAAAAAC [CACACA_negctrl_site625]”, CTTTTAGAATAATCAGTGCAAAAAAAAAAAAAAAAA is higher in “gcPBM binding intensity (ln)” value: 7.19 for the first, 8.42 for the second.

First: TTATTCTAAAAATATACACACAACAACAAACAAACA [CACACA_site1543]
Second: ATGTGTTTCTTCAATTGTACTAAAAGGTATATATTG [XGTACX_site4608]
The “gcPBM binding intensity (ln)” value of the first is higher: 7.42 for the first, 7.23 for the second.

First: TAGTAACTTGTATTCACACAAATTATATTATATTAC [CACACA_site5041]
Second: TATATAATATATAAATGTACTTTTGTCTTATATGAA [XGTACX_site7211]
The “gcPBM binding intensity (ln)” value of the first is lower: 7.02 for the first, 7.07 for the second.

First: ATTATTTAAATTTAACGTACGGAATAAGACATAGAT [XGTACX_site8622]
Second: ATACTATAATATAAAACACACATATGTACCTTCTAA [CACACA_site7323]
The “gcPBM binding intensity (ln)” value of the first is higher: 7.6 for the first, 7 for the second.

Going from “TTCAGGTAATAACATTGTACATGTGTATCATAATTA [XGTACX_site6740]” to “TTTTTTTTTTTTTTTTTTTTACAGAAAAATATTAAA [CACACA_negctrl_site128]”, the “gcPBM binding intensity (ln)” value falls from 6.88 to 6.8.

— the supplement of paper PMC11417369
